Measurements reported in patent US10494602B1, “Functional astrocytes and cortical neurons from induced pluripotent stem cells and methods of use thereof” (The Board of Trustees of the Leland Stanford Junior …, priority 2015, dated 2019).

System: spontaneous synaptic activity (EPSCs) of hCS neurons
Conditions: NBQX (25 μM) and D-AP5 (50 μM) together; at -70 mV; n=11 cells, P=0.001

SMILES | frequency of EPSCs
NC(CCCP(=O)(O)O)C(=O)O [D-AP5] | abolished
NS(=O)(=O)c1cccc2c1c([N+](=O)[O-])cc1nc(O)c(O)nc12 [NBQX] | abolished
